{"source": "PubChem BioAssay AID2528", "about": "(National Center for Advancing Translational Sciences (NCATS), 2010)", "note": "“And” between values parts separate entries of the source, which are not always exact repeats. Equal entries are not always repeated. About 700 (0.2%) of roughly 350,000 compounds were called active. Calls come from the whole dose curve; as a rule, active = well fitted inhibition curve with a large enough effect; inconclusive = small, poorly fitted or top-dose-only effect; inactive = flat fitted curve, though single readings scatter. The list shows a part of the results, in another mix than the full data. Where a structure was tested more than once in an assay, its records may differ in their call. Bridge positions count the residues as written; N and C are the ends. Square brackets hold non-standard residues; d marks the D form. Peptide text beside a SMILES is read from it. * marks the point of attachment. Octanoyl(6-Me) = CCC(C)CCCCC(=O)*; Dab = NCC[CH](N)C(=O)O", "data": [{"molecular_target": "RecQ-like DNA helicase BLM (Homo sapiens) (UniProt P54132)", "sequence (P54132 whole entry, looked up)": "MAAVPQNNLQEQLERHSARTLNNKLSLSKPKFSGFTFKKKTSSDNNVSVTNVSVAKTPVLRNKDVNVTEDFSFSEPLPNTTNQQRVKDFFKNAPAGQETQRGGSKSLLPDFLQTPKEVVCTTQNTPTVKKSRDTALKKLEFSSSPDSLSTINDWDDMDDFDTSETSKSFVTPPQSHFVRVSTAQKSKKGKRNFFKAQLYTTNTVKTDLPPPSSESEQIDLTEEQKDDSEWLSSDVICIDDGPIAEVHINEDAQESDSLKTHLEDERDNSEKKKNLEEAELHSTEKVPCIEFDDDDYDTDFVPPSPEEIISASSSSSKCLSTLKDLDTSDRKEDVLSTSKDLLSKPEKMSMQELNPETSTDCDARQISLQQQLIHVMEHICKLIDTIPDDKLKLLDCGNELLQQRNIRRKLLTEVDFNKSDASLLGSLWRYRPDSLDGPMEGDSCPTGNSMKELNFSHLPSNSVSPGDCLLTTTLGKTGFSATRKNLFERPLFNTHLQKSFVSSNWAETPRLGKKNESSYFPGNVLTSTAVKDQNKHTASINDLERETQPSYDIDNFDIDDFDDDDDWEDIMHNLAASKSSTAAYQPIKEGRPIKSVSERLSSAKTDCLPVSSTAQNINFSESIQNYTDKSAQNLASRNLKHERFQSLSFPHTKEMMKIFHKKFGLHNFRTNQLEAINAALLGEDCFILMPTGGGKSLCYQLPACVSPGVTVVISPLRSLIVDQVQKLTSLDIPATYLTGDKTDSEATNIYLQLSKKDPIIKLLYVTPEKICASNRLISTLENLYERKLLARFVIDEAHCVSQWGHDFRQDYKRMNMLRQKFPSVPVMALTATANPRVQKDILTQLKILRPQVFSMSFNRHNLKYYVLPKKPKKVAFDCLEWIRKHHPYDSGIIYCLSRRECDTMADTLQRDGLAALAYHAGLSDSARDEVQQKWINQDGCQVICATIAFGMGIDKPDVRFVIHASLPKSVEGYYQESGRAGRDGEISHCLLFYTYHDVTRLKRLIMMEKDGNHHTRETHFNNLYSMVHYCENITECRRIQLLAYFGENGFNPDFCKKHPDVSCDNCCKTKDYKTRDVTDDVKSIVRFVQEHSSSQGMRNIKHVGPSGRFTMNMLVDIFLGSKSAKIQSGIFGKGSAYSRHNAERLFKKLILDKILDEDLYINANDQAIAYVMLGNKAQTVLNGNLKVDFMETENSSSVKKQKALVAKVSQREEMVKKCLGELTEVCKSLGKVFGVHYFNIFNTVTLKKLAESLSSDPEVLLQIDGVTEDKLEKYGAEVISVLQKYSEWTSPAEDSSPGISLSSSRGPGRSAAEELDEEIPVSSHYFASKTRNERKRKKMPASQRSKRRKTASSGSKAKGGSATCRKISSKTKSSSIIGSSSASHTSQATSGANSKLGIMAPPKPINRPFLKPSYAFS", "assay": "qHTS Assay for Inhibitors of Bloom's syndrome helicase (BLM); note: nearly all actives have a fitted effect of over 35% in size; note: potency is the fitted concentration of half-maximal effect;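 for activity change, negative = inhibition: plate controls were vehicle for no effect and no enzyme for full effect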", "conditions": "recombinant BLM DNA unwinding, fluorescence dequenching; series mostly up to 56.1 µM; activity change, negative = inhibition: at the top concentration", "values": [{"smiles": "N[C@H](CCC(=O)N[C@H](CSN=O)C(=O)NCC(=O)O)C(=O)O", "activity change, negative = inhibition": "inactive: 1.3%"}, {"smiles": "COc1cc2ncnc(Nc3cccc(Cl)c3)c2cc1OC", "Potency": "inactive"}, {"smiles": "O=C(O)c1cc2cc(Cc3cccnc3)ccc2o1", "activity change, negative = inhibition": "inactive: 3.89%"}, {"smiles": "C1CCc2nnnn2CC1", "Potency": "inactive"}, {"smiles": "O=C(O)c1cc(=O)c2c(Cl)cc(Cl)cc2[nH]1", "Potency": "inactive"}, {"smiles": "CCc1nnc(NC(=O)CSc2sc3c(O)cc(=O)[nH]c3c2C#N)s1", "Potency": "active: 17.8 µM"}, {"smiles": "NC(=O)CC[C@H](N)C(=O)O", "activity change, negative = inhibition": "inactive: 0.641%"}, {"smiles": "COc1c(O)cc2oc(-c3ccc(O)c(O)c3)cc(=O)c2c1O", "activity change, negative = inhibition": "inactive: -27.6%"}, {"smiles": "CC(C)OC(=O)C(C)(C)Oc1ccc(C(=O)c2ccc(Cl)cc2)cc1", "Potency": "inactive"}, {"smiles": "CCNC(=O)[C@H]1O[C@H](n2cnc3c(N)nc(NCCc4ccc(CCC(=O)O)cc4)nc32)[C@@H](O)[C@@H]1O", "activity change, negative = inhibition": "inactive: -2.49%"}, {"smiles": "O=C(CSc1nc2ccccc2n1CCc1ccccc1)c1ccc(O)c(O)c1", "Potency": "active: 11.2 µM"}, {"smiles": "O=C(O)C(Cc1ccccc1)N1C(=O)/C(=C/C=C/c2ccco2)SC1=S", "note": "(stereo not drawn)", "Potency": "active: 22.4 µM"}, {"smiles": "N[C@H](CC(=O)O)C(=O)O", "Potency": "inactive"}, {"smiles": "CCOC(=O)N1CCC(=C2c3ccc(Cl)cc3CCc3cccnc32)CC1", "Potency": "inactive"}, {"smiles": "CCCN1CC(CSC)C[C@H]2c3cccc4[nH]cc(c34)C[C@H]21", "note": "(stereo partly drawn)", "activity change, negative = inhibition": "inactive: -6.38%"}, {"smiles": "COCCCC/C(=N\\OCCN)c1ccc(C(F)(F)F)cc1", "Potency": "inactive"}, {"smiles": "CC(=O)[C@]1(O)Cc2c(O)c3c(c(O)c2[C@@H](O[C@H]2C[C@H](N)[C@H](O)[C@H](C)O2)C1)C(=O)c1c(O)cccc1C3=O", "Potency": "active: 28.2 µM"}, {"smiles": "CC#CCOC(=O)c1c(C)nc2sc3c(c2c1N)CC[C@@H](O)C3", "activity change, negative = inhibition": "inactive: -4.83%"}, {"smiles": "N#C/C(=C\\c1ccc(OC(=O)c2cccs2)cc1)c1nc2ccccc2[nH]1", "Potency": "active: 20 µM"}, {"smiles": "Cc1ccc(N(CC2=NCCN2)c2cccc(O)c2)cc1", "Potency": "inactive"}, {"smiles": "Oc1cc2c(cc1O)[C@@H](c1ccccc1)CNCC2", "activity change, negative = inhibition": "inactive: -7.55%"}, {"smiles": "CC[C@]1(O)CC2CN(CCc3c([nH]c4ccccc34)[C@@](C(=O)OC)(c3cc4c(cc3OC)N(C)[C@H]3[C@@](O)(C(=O)OC)[C@H](OC(C)=O)[C@]5(CC)C=CCN6CC[C@]43[C@@H]65)C2)C1", "note": "(stereo partly drawn)", "activity change, negative = inhibition": "inactive: -1.86%"}, {"smiles": "COC(=O)C1C(O)CC[C@H]2CN3CCc4c([nH]c5ccccc45)C3C[C@H]12", "note": "(stereo partly drawn)", "activity change, negative = inhibition": "inactive: -1.27%"}, {"smiles": "COc1cccc2c1C(=O)c1c(O)c3c(c(O)c1C2=O)C[C@@](O)(C(=O)CO)C[C@@H]3OC1C[C@@H](N)[C@H](O)[C@H](C)O1", "note": "(stereo partly drawn)", "Potency": "active: 28.2 µM"}, {"smiles": "NCCCCC(=O)O", "activity change, negative = inhibition": "inactive: 2.46%"}, {"smiles": "COC(=O)[C@H]1[C@H]2CC3c4[nH]c5ccccc5c4CCN3C[C@@H]2CC[C@@H]1O", "note": "(stereo partly drawn)", "Potency": "inactive"}, {"smiles": "Cc1ccccc1[C@@H](OCCN(C)C)c1ccccc1", "activity change, negative = inhibition": "inactive: 2.25% [at 21.4 µM]"}, {"smiles": "C[C@@]1(C(=O)O)NCCc2cc(O)c(O)cc21", "Potency": "active: 8.91 µM"}, {"smiles": "CC(C)NC[C@H](O)c1ccc(NS(C)(=O)=O)cc1", "Potency": "inactive"}, {"smiles": "N#C/C(=C\\c1ccc(O)c(O)c1)C(=O)Nc1ccccc1", "activity change, negative = inhibition": "inactive: -18.8%"}, {"smiles": "CC(C)NC(=O)CC(=O)N/N=C/c1cccs1", "Potency": "active: 17.8 µM"}, {"smiles": "O=C(c1ccc(-n2cccn2)cc1)N1CCc2c([nH]c3ccccc23)C1c1ccccn1", "note": "(stereo not drawn)", "Potency": "active: 12.6 µM"}, {"smiles": "O=C1NC(=O)C(c2ccccc2[N+](=O)[O-])=C1Nc1ccc(O)c(Cl)c1", "Potency": "inactive"}, {"smiles": "Oc1ccc(C2CNCCc3c2cc(O)c(O)c3Cl)cc1", "note": "(stereo not drawn)", "activity change, negative = inhibition": "inactive: -21.3%"}, {"smiles": "C[C@](N)(Cc1ccc(O)cc1)C(=O)O", "activity change, negative = inhibition": "inactive: 1.21%"}, {"smiles": "CCNC(=O)[C@H]1O[C@@H](n2cnc3c(N)nc(NCCc4ccc(CCC(=O)O)cc4)nc32)[C@H](O)[C@@H]1O", "activity change, negative = inhibition": "inactive: 0.126%"}, {"smiles": "Oc1ccc(NCc2cccc(OCc3ccc(F)cc3)c2)cc1", "Potency": "active: 14.1 µM"}, {"smiles": "CCCCCCCCCCCCCCCC(=O)O[C@H](CC(=O)O)C[N+](C)(C)C", "activity change, negative = inhibition": "inactive: -11.3%"}, {"smiles": "N=C1CCC(=N)c2c1c(O)c1ccccc1c2O", "Potency": "active: 31.6 µM"}, {"smiles": "c1ccc2c(c1)CCCC2C1=NCCN1", "note": "(stereo not drawn)", "Potency": "inactive"}, {"smiles": "C[C@@]12C[C@@H](O)[C@H]3[C@@H](CCC4=CC(=O)CC[C@]43C)[C@H]1CC[C@H]2C(=O)CO", "activity change, negative = inhibition": "inactive: 0.922% [at 21.4 µM]"}, {"smiles": "N[C@@H](CC(=O)O)C(=O)O", "activity change, negative = inhibition": "inactive: -4.67%"}, {"smiles": "Oc1ccc(NCc2ccc(OCc3ccccc3)cc2)cc1", "activity change, negative = inhibition": "inactive: -10%"}, {"smiles": "O=C(/C=C/c1ccc(O)c(O)c1)OC(Cc1ccc(O)c(O)c1)C(=O)O", "note": "(stereo not drawn)", "Potency": "inactive"}, {"smiles": "NNCCc1ccccc1", "Potency": "inactive"}, {"smiles": "CC(C)CN(C(=O)COC(=O)c1cc2c(s1)CCC2)C1CCS(=O)(=O)C1", "note": "(stereo not drawn)", "Potency": "active: 25.1 µM"}, {"smiles": "O=C(O)c1cc(O)c2c(c1)[C@H]([C@H]1c3cc(C(=O)O)cc(O)c3C(=O)c3c(O[C@@H]4OC(CO)C(O)C(O)C4O)cccc31)c1cccc(O[C@@H]3OC(CO)C(O)C(O)C3O)c1C2=O", "note": "(stereo partly drawn)", "Potency": "active: 3.16 µM"}, {"smiles": "Oc1ccc(/C=C\\c2cc(O)cc(O)c2)cc1", "Potency": "inactive"}, {"smiles": "C=CCn1c(NC(=O)c2ccccc2Cl)c(C#N)c2nc3ccccc3nc21", "Potency": "active: 1 µM"}, {"smiles": "CC(C)(C=O)Cc1cc(C(C)(C)C)c(O)c(C(C)(C)C)c1", "activity change, negative = inhibition": "inactive: -9.01%"}, {"smiles": "Cc1ccccc1N1CCN(S(=O)(=O)CC23CCC(CC2NC(=O)C(N)CCS(C)(=O)=O)C3(C)C)CC1", "note": "(stereo not drawn)", "activity change, negative = inhibition": "inactive: -4.36%"}, {"smiles": "CCOC(=O)C1=C(C)NC(C)=C(C(=O)OC)[C@H]1c1cccc([N+](=O)[O-])c1", "activity change, negative = inhibition": "inactive: -9.9%"}, {"smiles": "Cc1cc(-c2ccc(N=Nc3ccc4c(S(=O)(=O)O)cc(S(=O)(=O)O)c(N)c4c3O)c(C)c2)ccc1N=Nc1ccc2c(S(=O)(=O)O)cc(S(=O)(=O)O)c(N)c2c1O", "Potency": "inactive and active: 11.2 µM"}, {"smiles": "C=CC(N)CCC(=O)O", "note": "(stereo not drawn)", "Potency": "inactive"}, {"smiles": "CCOc1ccc(NC(=S)Nc2ccc3nsnc3c2)cc1", "Potency": "active: 3.98 µM"}, {"smiles": "Oc1cc(O)c2c(c1)O[C@H](c1ccc(O)c(O)c1)[C@@H](O)C2", "Potency": "inactive"}, {"smiles": "CCC(C)CCCCC(=O)NC(CCN)C(=O)NC(C(=O)NC(CCN)C(=O)NC1CCNC(=O)C(C(C)O)NC(=O)C(CCN)NC(=O)C(CCN)NC(=O)C(CC(C)C)NC(=O)C(Cc2ccccc2)NC(=O)C(CCN)NC1=O)C(C)O", "note": "(stereo not drawn) ({Octanoyl(6-Me)}-[Dab]T[Dab][Dab][Dab]FL[Dab][Dab]T; lactam 4-C; configuration not given here)", "Potency": "active: 7.94 µM"}, {"smiles": "COCCc1ccc(OC[C@H](O)CNC(C)C)cc1", "activity change, negative = inhibition": "inactive: -10.2%"}]}]}
